The campaign covered roughly 310,000 compounds. About 2,200 (0.71%) showed an effect of 50% or more. The effect is printed as a negative number. Some of the results follow.

Chain of human ether-à-go-go-related gene (hERG) potassium channel (Q12809 whole entry, looked up): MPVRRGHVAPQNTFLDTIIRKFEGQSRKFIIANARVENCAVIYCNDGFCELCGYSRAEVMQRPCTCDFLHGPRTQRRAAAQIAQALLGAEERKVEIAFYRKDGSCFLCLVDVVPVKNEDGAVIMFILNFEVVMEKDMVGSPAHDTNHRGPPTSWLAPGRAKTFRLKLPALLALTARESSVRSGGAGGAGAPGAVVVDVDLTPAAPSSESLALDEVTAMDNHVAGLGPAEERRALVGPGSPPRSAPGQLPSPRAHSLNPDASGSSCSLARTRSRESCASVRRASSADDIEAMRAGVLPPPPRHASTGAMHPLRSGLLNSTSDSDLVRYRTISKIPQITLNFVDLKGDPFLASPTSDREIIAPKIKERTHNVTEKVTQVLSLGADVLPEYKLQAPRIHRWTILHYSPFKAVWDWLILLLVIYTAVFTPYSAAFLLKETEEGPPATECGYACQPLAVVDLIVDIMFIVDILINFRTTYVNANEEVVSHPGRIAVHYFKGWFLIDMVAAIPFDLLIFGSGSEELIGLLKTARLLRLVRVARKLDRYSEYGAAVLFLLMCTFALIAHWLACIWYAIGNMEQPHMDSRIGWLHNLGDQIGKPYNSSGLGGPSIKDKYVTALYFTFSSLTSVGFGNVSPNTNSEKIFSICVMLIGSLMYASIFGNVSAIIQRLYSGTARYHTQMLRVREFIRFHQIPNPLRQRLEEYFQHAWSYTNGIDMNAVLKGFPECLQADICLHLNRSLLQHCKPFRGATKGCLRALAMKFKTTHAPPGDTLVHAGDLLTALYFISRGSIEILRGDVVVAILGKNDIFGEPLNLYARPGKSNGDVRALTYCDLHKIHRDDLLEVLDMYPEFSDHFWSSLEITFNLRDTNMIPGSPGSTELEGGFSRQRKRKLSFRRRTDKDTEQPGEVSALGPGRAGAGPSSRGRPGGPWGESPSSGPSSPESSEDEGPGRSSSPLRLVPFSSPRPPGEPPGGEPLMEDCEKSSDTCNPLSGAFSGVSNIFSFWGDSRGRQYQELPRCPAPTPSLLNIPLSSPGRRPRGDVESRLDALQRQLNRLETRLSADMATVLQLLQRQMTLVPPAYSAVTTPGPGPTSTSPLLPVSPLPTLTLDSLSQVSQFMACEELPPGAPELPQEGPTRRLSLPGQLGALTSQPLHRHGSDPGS

This assay addresses human ether-à-go-go-related gene (hERG) potassium channel (human, UniProt Q12809). The assay is described as follows: primary screen, population patch clamp on CHO cells stably expressing hERG.
With `COC(=O)c1sc(-c2ccc(C(C)(C)C)cc2)cc1NC(=O)CCC(=O)O`, the “hERG current change (%, negative = inhibition) at 1uM” value came out at 14.4%. Then `CC(=O)c1ccc(OCCCC(=O)N2CCN(S(=O)(=O)c3ccc(C(C)C)cc3)CC2)cc1`, with 7.77%; and `COc1ccc(C#Cc2c(-c3ccc(OC)cc3)oc3ccc(-c4ccc5c(c4)OCO5)cc23)cc1`, with 7.24%. Then `Cc1ccc(NC(=S)N(CCC(C)C)C(C)c2ccncc2)c(Cl)c1` (centres unmarked), with 10.9%; and `CCOC(=O)c1cnc2c(C(F)(F)F)cccc2c1N1CCOCC1`, with 0.0827%; and `CC(C)Cn1nc(NC(=O)C(C)(C)C)c2cc3ccccc3nc21`, with 12.1%.

With `COc1ccc(-c2csc(N(CCCN(C)C)C(=O)c3ccc(C)cc3)n2)cc1.Cl`, the “hERG current change (%, negative = inhibition) at 1uM” value is on record as -17.2%. For `Cc1cccc(CCNC(=O)Cn2ncc3c([nH]c4ccc(C)cc43)c2=O)c1` the value was 8.4%; for `Cc1cc(C)c2oc(C(=O)Nc3nnc(C(C)C)s3)cc(=O)c2c1`, 14.7%. For `COc1ccccc1NC(=O)CN1C(=O)NC2(CCCc3ccccc32)C1=O` (centres unmarked) the value was 7.03%; for `O=C(c1cccc(S(=O)(=O)N2CCCCCC2)c1)N1CCN(c2ccccc2)CC1`, -11.5%; for `O=C(COC(=O)C1CCN(S(=O)(=O)c2cccc3cccnc23)CC1)c1ccc(F)cc1`, 12.6%. Turning to `COC(=O)c1ccccc1NC(=O)c1ccc(NS(C)(=O)=O)cc1`, the “hERG current change (%, negative = inhibition) at 1uM” value is -14.7%. Then `CSc1sc(-c2nnc(SCC(=O)Nc3ccccc3)n2C)c2c1C=CCC2`, with -4.8%; and `Cn1c2ccccc2c2nnc(SCC(=O)Nc3cccc(O)c3)nc21`, with -10%; and `S=C(NCCc1ccccc1)NN=C1CCCCCC1`, with 17.9%. Then `CCn1c(=O)[nH]c(=O)c2c(N)c(C(=O)c3ccccc3OC)sc21`, with 2.48%; and `Cc1ccc(C(=O)OCC(=O)Nc2sc3c(c2C#N)CCC3)cc1`, with 5.83%.

With `Cc1ccc(CNC(=O)c2cnccn2)cc1`, the “hERG current change (%, negative = inhibition) at 1uM” value came to 11.4%. For `N/C(=N\OC(=O)c1cccc(C(F)(F)F)c1)c1cnccn1` the value was 10.5%; for `O=C(CNC(=O)c1cccs1)N/N=C/c1ccc(Cl)cc1`, 8.95%. For `COc1cccc2c3c(c(C)nc12)CC(C)O3` (centres unmarked) the value was -10%; for `O=C(NCc1ccccc1)c1onc(CSc2ccccn2)c1C(=O)NCc1ccccc1`, 11.7%; for `CCNS(=O)(=O)c1ccc(NC(=O)Nc2cccc(C(F)(F)F)c2)cc1`, 2.43%. For `O=C(c1ccc2c(=O)n3c(nc2c1)CCCCC3)N1CCN(c2ccc(F)cc2)CC1` the value was 9.38%; for `O=C(COC(=O)CNS(=O)(=O)c1ccc(Br)cc1Cl)NC1CC1`, 12.2%; for `O=C(CCn1c(SCC(=O)c2ccccc2)nc2ccccc2c1=O)NCc1ccc(F)cc1`, 7.58%. Turning to `COc1ccc(OC)c(NC(=O)C2COc3ccccc3O2)c1` (centres unmarked), the “hERG current change (%, negative = inhibition) at 1uM” value stood at 16.2%.

Regarding `O=C(Cc1cn(-c2ccccc2)nc1-c1ccccc1)N1CCCCC1`, the “hERG current change (%, negative = inhibition) at 1uM” value came out at 6.11%. Then `CN(C)CCCNC(=S)N(CCO)Cc1cc2cc3c(cc2[nH]c1=O)OCO3`, with 12.6%; and `CCC1(C)Nc2ccccc2C(=O)N1O` (centres unmarked), with 6.65%; and `COc1ccccc1/C=C/C=N/NC(=O)CCn1nnc2ccccc21`, with 6.98%. Then `Cn1cnnc1SCC(=O)Nc1ccc2nc(SCc3ccccc3Cl)sc2c1`, with 0.119%. As to `CCN(Cc1cnn(C)c1)C(=O)c1cc(COc2ccc3c(c2)CCCC3)on1`, the “hERG current change (%, negative = inhibition) at 1uM” value is recorded as 10.9%. Then `CC1(c2ccccc2)NC(=O)N(CC(=O)Nc2ccccc2C(=O)N2CCCCC2)C1=O` (centres unmarked), with 18.1%; and `COc1ccccc1OCCC(=O)OCC(=O)c1[nH]c(C)c(C(C)=O)c1C`, with 8.01%; and `CCC(=O)Nc1c(-c2ccc(OC)cc2)c(=O)c2ccccc2n1C`, with 3.08%. Then `O=C(NCC(=O)N1CCC2(CC1)NCCc1[nH]cnc12)c1ccccc1F`, with 9.99%; and `COCCOC(=O)c1[nH]c2c(c1C)C(=O)CC(c1ccc(N(C)C)cc1)C2` (centres unmarked), with 10.5%.

On to `CN(CCOc1ccccc1)C(=O)c1cc(COc2c(F)cccc2F)on1`, for which the “hERG current change (%, negative = inhibition) at 1uM” value is given as 5.18%. For `COc1ccc(CCNCc2cc(C)n(-c3ccc(OC)cc3)c2C)cc1.O=C(O)C(=O)O` the value was 7.58%; for `Cc1ccc(CN2CCC(n3nccc3NC(=O)c3ccc4c(c3)OCO4)CC2)o1`, -6.38%. For `COc1c(C)cc(C(=O)C2CCCN(C(=O)c3cc(C)on3)C2)cc1C` (centres unmarked) the value was 14%. Regarding `CC(C)c1nnc(NC(=O)CCC(=O)N2CCN(C3c4ccccc4-c4ccccc43)CC2)s1`, the “hERG current change (%, negative = inhibition) at 1uM” value is listed as 13.8%.

For the origin of these results see paper PMC4336329 (PLoS ONE, 2015).
